Results reported in patent publication US11178870B2 (priority 2017, dated 2021).

Experiments:
Format in all cases: in vivo
[1] = tested on: Alternaia brassicicola; assay: Test Example C: Alternaria sooty spot on cabbage; conditions: for Test C control value (Alternaria sooty spot on cabbage): class of control value, Table 7; for control value, Test C (Alternaria sooty spot on cabbage): Table 7, Test C; for Test C control value: Alternaria sooty spot on cabbage
[2] = tested on: Plasmopara viticola; assay: Test Example G: Downy mildew on vine; conditions: for Test G control value (downy mildew on vine): 250 ppm spray, investigated 7 to 10 days after inoculation; for Test G control value (downy mildew on vine) / Test G control value: 2.5 ml/pot; for control value, Test G (downy mildew on vine): 250 ppm sprayed (2.5 ml/pot) before inoculation, assessed 7 to 10 days after inoculation; for Test G control value: Downy mildew on vine, 250 ppm sprayed, 7 to 10 days after inoculation
[3] = tested on: Puccinia recondita; assay: Test Example E: Brown rust on wheat; conditions: for Test E control value (brown rust on wheat): class of control value, Table 7; for control value, Test E (brown rust on wheat): Table 7, Test E; for Test E control value: Brown rust on wheat
[4] = tested on: Blumeria graminis f. sp. hordei; assay: Test Example D: Powdery mildew on barley; conditions: for Test D control value (powdery mildew on barley): class of control value, Table 7; for control value, Test D (powdery mildew on barley): Table 7, Test D; for Test D control value: Powdery mildew on barley
[5] = tested on: Botrytis cinerea; assay: Test Example B: Gray mold on tomato; conditions: for Test B control value (gray mold on tomato): class of control value, Table 7; for control value, Test B (gray mold on tomato): Table 7, Test B; for Test B control value: Gray mold on tomato

| SMILES | Test C control value (Alternaria sooty spot on cabbage) [1] | Test G control value (downy mildew on vine) [2] | Test E control value (brown rust on wheat) [3] | Test D control value (powdery mildew on barley) [4] | Test B control value (gray mold on tomato) [5] | control value, Test C (Alternaria sooty spot on cabbage) [1] | control value, Test G (downy mildew on vine) [2] | control value, Test E (brown rust on wheat) [3] | control value, Test D (powdery mildew on barley) [4] | control value, Test B (gray mold on tomato) [5] | also measured |
| --- | --- | --- | --- | --- | --- | --- | --- | --- | --- | --- | --- |
| Cn1c(-c2c(F)cccc2Cl)c(-n2cc(F)cn2)cc(Cl)c1=O [Compound 509] | H (H shows the control value more than 50%) | H (H shows the control value more than 50%) | H (H shows the control value more than 50%) | H (H shows the control value more than 50%) | H (H shows the control value more than 50%) |  |  |  |  |  |  |
| CCn1c(-c2ccc(F)cc2F)c(-n2cc(F)cn2)cc(Br)c1=O [Compound 252] |  |  |  |  |  | H (H shows the control value more than 50%) | L (L shows the control value of 50% or less) | H (H shows the control value more than 50%) | H (H shows the control value more than 50%) | H (H shows the control value more than 50%) |  |
| CCn1c(-c2ccccc2Cl)c(-n2cnc(Cl)c2Cl)cc(Br)c1=O [Compound 210] |  |  |  |  |  | L (L shows the control value of 50% or less) | L (L shows the control value of 50% or less) | H (H shows the control value more than 50%) | L (L shows the control value of 50% or less) | H (H shows the control value more than 50%) |  |
| Cc1cnn(-c2cc(Cl)c(=O)n(CC(F)F)c2-c2ccc(F)cc2Cl)c1Cl [Compound 343] |  |  |  |  |  | H (H shows the control value more than 50%) | H (H shows the control value more than 50%) | H (H shows the control value more than 50%) | H (H shows the control value more than 50%) | H (H shows the control value more than 50%) |  |
| CCn1c(-c2c(F)cc(F)cc2F)c(-n2cnnn2)ccc1=O [Compound 281] |  |  |  |  |  | H (H shows the control value more than 50%) | L (L shows the control value of 50% or less) | L (L shows the control value of 50% or less) | H (H shows the control value more than 50%) | L (L shows the control value of 50% or less) |  |
| CCn1c(-c2ccccc2Br)c(-n2cc(C)cn2)cc(Br)c1=O [Compound 269] |  |  |  |  |  | H (H shows the control value more than 50%) | L (L shows the control value of 50% or less) | H (H shows the control value more than 50%) | H (H shows the control value more than 50%) | H (H shows the control value more than 50%) |  |
| CCn1c(-c2c(F)cccc2F)c(-c2sc(Cl)cc2Cl)cc(Cl)c1=O [Compound 396] | L (L shows the control value of 50% or less) | L (L shows the control value of 50% or less) | L (L shows the control value of 50% or less) | L (L shows the control value of 50% or less) | L (L shows the control value of 50% or less) |  |  |  |  |  |  |
| Cc1cnn(-c2ccc(=O)n(C)c2-c2ccc(F)cc2F)c1 [Compound 406] | H (H shows the control value more than 50%) | L (L shows the control value of 50% or less) | L (L shows the control value of 50% or less) | H (H shows the control value more than 50%) | L (L shows the control value of 50% or less) |  |  |  |  |  |  |
| CCn1c(-c2ccc(F)cc2C#N)c(-n2ncc(C)c2Cl)cc(Br)c1=O [Compound 486] | H (H shows the control value more than 50%) | H (H shows the control value more than 50%) | H (H shows the control value more than 50%) | H (H shows the control value more than 50%) | H (H shows the control value more than 50%) |  |  |  |  |  |  |
| O=c1c(Cl)cc(-n2cc(Cl)cn2)c(-c2ccc(F)cc2Br)n1CC(F)F [Compound 274] |  |  |  |  |  | H (H shows the control value more than 50%) | L (L shows the control value of 50% or less) | H (H shows the control value more than 50%) | H (H shows the control value more than 50%) | H (H shows the control value more than 50%) |  |
| CCn1c(-c2c(F)cc(OC)cc2F)c(-c2ocnc2Br)cc(Br)c1=O [Compound 103] |  |  |  |  |  |  |  |  |  |  | Test C control value [1]: H (H shows the control value more than 50%); Test G control value [2]: L (L shows the control value of 50% or less); Test E control value [3]: H (H shows the control value more than 50%); Test D control value [4]: H (H shows the control value more than 50%); Test B control value [5]: H (H shows the control value more than 50%) |
| CCn1c(-c2c(F)cccc2F)c(-c2ocnc2Cl)cc(Cl)c1=O [Compound 50] |  |  |  |  |  |  |  |  |  |  | Test C control value [1]: H (H shows the control value more than 50%); Test G control value [2]: H (H shows the control value more than 50%); Test E control value [3]: H (H shows the control value more than 50%); Test D control value [4]: H (H shows the control value more than 50%); Test B control value [5]: H (H shows the control value more than 50%) |
| CCn1c(-c2ccc(F)cc2Cl)c(-c2ocnc2C)cc(Cl)c1=O [Compound 38] |  |  |  |  |  |  |  |  |  |  | Test C control value [1]: L (L shows the control value of 50% or less); Test G control value [2]: L (L shows the control value of 50% or less); Test E control value [3]: L (L shows the control value of 50% or less); Test D control value [4]: L (L shows the control value of 50% or less); Test B control value [5]: L (L shows the control value of 50% or less) |
| O=c1c(Br)cc(-n2cc(F)cn2)c(-c2ccc(F)cc2Br)n1CC(F)F [Compound 449] | H (H shows the control value more than 50%) | L (L shows the control value of 50% or less) | H (H shows the control value more than 50%) | H (H shows the control value more than 50%) | H (H shows the control value more than 50%) |  |  |  |  |  |  |
| CCn1c(-c2ccccc2OC)c(-n2cc(Cl)cn2)ccc1=O [Compound 242] |  |  |  |  |  | L (L shows the control value of 50% or less) | L (L shows the control value of 50% or less) | L (L shows the control value of 50% or less) | L (L shows the control value of 50% or less) | H (H shows the control value more than 50%) |  |
| O=c1c(Br)cc(-c2sc(Br)cc2Br)c(-c2c(F)cccc2F)n1CC(F)F [Compound 422] | H (H shows the control value more than 50%) | L (L shows the control value of 50% or less) | H (H shows the control value more than 50%) | H (H shows the control value more than 50%) | L (L shows the control value of 50% or less) |  |  |  |  |  |  |
| CCn1c(-c2ccc(F)cc2F)c(-n2ncc(C)c2Cl)cc(Cl)c1=O [Compound 182] |  |  |  |  |  |  |  |  |  |  | Test C control value [1]: H (H shows the control value more than 50%); Test G control value [2]: H (H shows the control value more than 50%); Test E control value [3]: H (H shows the control value more than 50%); Test D control value [4]: H (H shows the control value more than 50%); Test B control value [5]: H (H shows the control value more than 50%) |
| O=c1c(Cl)cc(-n2cc(F)cn2)c(-c2ccc(F)cc2F)n1CC(F)F [Compound 285] |  |  |  |  |  | H (H shows the control value more than 50%) | L (L shows the control value of 50% or less) | H (H shows the control value more than 50%) | H (H shows the control value more than 50%) | H (H shows the control value more than 50%) |  |
| O=c1c(Br)cc(-n2cc(Cl)cn2)c(-c2ccccc2Br)n1CC(F)F [Compound 291] |  |  |  |  |  | H (H shows the control value more than 50%) | L (L shows the control value of 50% or less) | L (L shows the control value of 50% or less) | L (L shows the control value of 50% or less) | L (L shows the control value of 50% or less) |  |
| CCn1c(-c2c(F)cccc2F)c(-c2sc(Br)cc2C)cc(Br)c1=O [Compound 388] | H (H shows the control value more than 50%) | L (L shows the control value of 50% or less) | H (H shows the control value more than 50%) | H (H shows the control value more than 50%) | H (H shows the control value more than 50%) |  |  |  |  |  |  |
